Measurements reported in the supplement of paper PMC9446081.
The campaign covered roughly 39,000 compounds. About 220 (0.56%) showed activity. The list shows a part of the results.

Test system: Escherichia coli K-12 BW25113
Assay: relative growth (OD600 normalised to plate interquartile mean) (fraction); higher = less growth inhibition, active = 0.2 or less
Conditions: 50 µM; LB; incubation time: overnight (16-24 h)
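Also: static incubation at 37 °C against the wild-type strain, values averaged over two biological replicates.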

Structure (SMILES)	relative growth
C[C@@H]1CN([C@H](C)CO)C(=O)c2cccc(NS(=O)(=O)c3ccc(F)cc3)c2O[C@H]1CN(C)S(=O)(=O)c1cn(C)cn1	inactive: 0.991
O=C(Nc1ccc(C(F)(F)F)cc1)Nc1ccc2c(c1)[C@@H]1C[C@H](CC(=O)N3CCc4ccccc4C3)O[C@@H](CO)[C@@H]1O2	inactive: 0.973
O=C1Nc2ccc(I)cc2C1=Cc1cc(Br)c(O)c(Br)c1	inactive: 1.12
COc1ccc(S(=O)(=O)N(C)C[C@H]2OCCCC[C@@H](C)Oc3ccc(NC(=O)Nc4ccc(C(F)(F)F)cc4)cc3C(=O)N([C@@H](C)CO)C[C@H]2C)cc1	inactive: 1.03
C[C@H](CO)N1C[C@H](C)[C@H](CN(C)S(=O)(=O)c2cccs2)Oc2ncc(-c3cccc(F)c3)cc2C1=O	inactive: 0.97
C[C@H]1CN([C@@H](C)CO)C(=O)c2cccc(NS(=O)(=O)c3ccccc3)c2O[C@@H]1CN(C)S(=O)(=O)c1cccs1	inactive: 0.965
CO[C@H]1CN(C)C(=O)c2ccc(NC(=O)c3ccccc3)cc2OC[C@H](C)N(C(=O)CN(C)C)C[C@@H]1C	inactive: 1.02
C[C@@H]1CN([C@@H](C)CO)C(=O)c2cccc(NC(=O)Nc3ccc(C(F)(F)F)cc3)c2O[C@@H]1CN(C)C(=O)Nc1ccc(F)cc1	inactive: 0.972
COCC(=O)N(C)C[C@H]1Oc2cc(C#Cc3ccccc3)ccc2S(=O)(=O)N([C@@H](C)CO)C[C@@H]1C	inactive: 1.02
COc1ccc2c3c([nH]c2c1)[C@@H](CO)N(C[C@]13CCN(CC1)CC1CCOCC1)S(=O)(=O)c1cn(cn1)C	inactive: 0.986
C[C@H](CO)N1C[C@H](C)[C@@H](CN(C)Cc2ccc(C(=O)Nc3ccccc3N)cc2)Oc2c(NC(=O)c3ccc(-c4nccs4)cc3)cccc2C1=O	inactive: 0.994
COc1ccc(NC(=O)N2C[C@@H](O)COC[C@@H]3O[C@@H](CC(=O)NC4Cc5ccccc5C4)CC[C@H]32)cc1	inactive: 1.01
C[C@H](CO)N1C[C@H](C)[C@H](CN(C)S(=O)(=O)c2ccccc2)Oc2ncc(-c3ccc(F)cc3)cc2C1=O	inactive: 0.98
CN(C)c1ccsc1C(=O)NN	inactive: 1.02
C[C@@H]1CN([C@H](C)CO)C(=O)c2cc(NC(=O)Cc3cn(C)c4ccccc34)ccc2O[C@H]1CN(C)Cc1ccc(C(=O)Nc2ccccc2N)cc1	inactive: 0.977
C[C@@H]1CN([C@H](C)CO)C(=O)c2cc(NS(=O)(=O)c3ccc(Cl)cc3)ccc2O[C@@H](C)CCCCO[C@@H]1CN(C)Cc1ccc(Cl)c(Cl)c1	inactive: 1.03
C[C@@H]1CN([C@H](C)CO)C(=O)c2cccc(NC(=O)c3ccc(-c4nccs4)cc3)c2O[C@H]1CN(C)CC1CCCCC1	inactive: 1.03
C[C@H](CO)N1C[C@H](C)[C@H](CN(C)C(=O)Nc2cccc3ccccc23)Oc2ccc(NC(=O)C3CCCCC3)cc2C1=O	inactive: 0.999
COc1cc(CNC(=O)CCCCC=CC(C)C)ccc1O	inactive: 0.97
COc1ccccc1C#Cc1cnc2c(c1)C(=O)N([C@H](C)CO)C[C@H](C)[C@@H](CN(C)S(=O)(=O)c1cn(C)cn1)O2	inactive: 0.976
C[C@@H]1CN([C@H](C)CO)C(=O)Cc2cc(NC(=O)Cn3cnnn3)ccc2O[C@H]1CN(C)C(=O)Nc1cccc2ccccc12	inactive: 0.884

Structure (SMILES)	relative growth
Cc1noc(C)c1NC(=O)Nc1ccc2c(c1)C(=O)N([C@@H](C)CO)C[C@H](C)[C@@H](CN(C)Cc1ccc(C(F)(F)F)cc1)O2	inactive: 0.991
C[C@H]1CN([C@@H](C)CO)C(=O)c2cccc(NC(=O)c3nc4ccccc4s3)c2O[C@@H]1CN(C)Cc1ccc(Oc2ccccc2)cc1	inactive: 1.01
C=C1[N-]O[N+](O)=C1CN(Cc1c(C)no[n+]1[O-])OC(C)=O	inactive: 1.01
CSc1nc(=O)c(CCO)c(C)[nH]1	inactive: 1.02
CC(C)NC(=O)N(C)C[C@@H]1Oc2ccc(NS(=O)(=O)c3cn(C)cn3)cc2C(=O)N([C@H](C)CO)C[C@H]1C	inactive: 0.996
C[C@@H]1CN([C@@H](C)CO)C(=O)c2cccc(NC(=O)c3ccc(-c4nccs4)cc3)c2O[C@@H]1CN(C)C(=O)Nc1ccc(C(F)(F)F)cc1	inactive: 0.99
COc1ccc([C@H](O)[C@H](CCO)OC)cc1O	inactive: 0.989
CN(CCO)S(=O)(=O)c1ccc2c(c1)C(=NO)c1cc(S(=O)(=O)N(C)CCO)ccc1-2	inactive: 1.03
COc1ccc(-c2ccc3c(c2)O[C@@H](CN(C)CC2CCOCC2)[C@@H](C)CN([C@@H](C)CO)S3(=O)=O)cc1	inactive: 0.991
COc1ccc([Si](C)(C)[C@H]2[C@H](CCO)O[C@@]3(C(=O)N(Cc4ccccc4)c4ccc(N5C(=O)c6cccc7cccc5c67)cc43)[C@@H]2C)cc1	inactive: 1.04
COc1ccc(NC(=O)Nc2ccc3c(c2)[C@H]2C[C@@H](CC(=O)NCc4ccccn4)O[C@H](CO)[C@H]2O3)cc1	inactive: 0.988
C[C@H](CO)N1C[C@H](C)[C@H](CN(C)C(=O)Nc2ccc(C(F)(F)F)cc2)Oc2ccc(NS(=O)(=O)c3ccc(F)cc3)cc2C1=O	inactive: 0.994
Nc1ccc(CO)cn1	inactive: 0.999
C[C@@H]1CCCCO[C@H](CN(C)S(=O)(=O)c2cccs2)[C@H](C)CN([C@H](C)CO)C(=O)c2cc(NS(=O)(=O)c3ccc(Cl)cc3)ccc2O1	inactive: 1.05
O=C(O)C=Cc1ccc(Cn2ccnc2)cc1	inactive: 0.953
COc1ccc(S(=O)(=O)Nc2ccc3c(c2)C(=O)N([C@@H](C)CO)C[C@@H](C)[C@@H](CN(C)S(=O)(=O)c2ccccc2)O3)cc1	inactive: 1.02
CCNC(=O)C[C@H]1C=C[C@@H](NC(=O)C2CCOCC2)[C@H](CO)O1	inactive: 1
O=C1c2ccccc2[C@@]2(Cc3ccccc3N(Cc3ccccc3)C2=O)[C@H](c2ccc(CO)cc2)N1Cc1ccccc1C(F)(F)F	inactive: 1.04
COc1ccccc1C#Cc1cnc2c(c1)C(=O)N([C@H](C)CO)C[C@@H](C)[C@@H](CN(C)S(=O)(=O)c1cn(C)cn1)O2	inactive: 0.996
COCC#Cc1ccc([C@@H]2[C@@H](CO)N3C(=O)CN(C(=O)c4cccnc4)C[C@H]23)cc1	inactive: 1.02
CCC(=O)N1Cc2cc(C(=O)NCc3cccc(F)c3)nc(-c3cccc(C4=CCCC4)c3)c2[C@H]1CCO	inactive: 0.996

Structure (SMILES)	relative growth
CC1(C)C=Cc2cc(C#N)ccc2O1	inactive: 0.995
C[C@@H]1CN([C@H](C)CO)C(=O)Cc2cc(NC(=O)CCN3CCOCC3)ccc2O[C@@H]1CN(C)C(=O)NC1CCCCC1	inactive: 0.994
C[C@H](CO)N1C[C@H](C)[C@H](CN(C)Cc2ccc(Oc3ccccc3)cc2)Oc2c(NC(=O)Nc3ccc(C(F)(F)F)cc3)cccc2C1=O	inactive: 1.08
CC(C)NC(=O)N(C)C[C@H]1Oc2ccc(NC(=O)Cc3ccccc3)cc2CC(=O)N([C@@H](C)CO)C[C@H]1C	inactive: 0.978
Cc1ccccc1C(OCCN(C)C)c1ccccc1.O=C(O)CC(O)(CC(=O)O)C(=O)O (stereo unspecified)	inactive: 1.01
C[C@@H]1CN([C@@H](C)CO)C(=O)c2cccc(NC(=O)CCCCCC(=O)Nc3ccccc3N)c2O[C@@H]1CN(C)Cc1ccc(Oc2ccccc2)cc1	inactive: 0.982
CCCN(C)C[C@@H]1OCCCC[C@@H](C)Oc2ccc(NC(=O)c3ccccc3)cc2C(=O)N([C@H](C)CO)C[C@@H]1C	inactive: 1.01
COc1cccc(S(=O)(=O)N(C)C[C@H]2Oc3cc(C#CCC(C)C)ccc3S(=O)(=O)N([C@H](C)CO)C[C@H]2C)c1	inactive: 0.926
C[C@@H]1CN([C@H](C)CO)C(=O)c2cc(NS(C)(=O)=O)ccc2O[C@@H](C)CCCCO[C@H]1CN(C)S(=O)(=O)c1ccccc1	inactive: 0.989
C[C@H]1CCCCO[C@H](CN(C)C(=O)Nc2ccc(C(F)(F)F)cc2)[C@@H](C)CN([C@@H](C)CO)C(=O)c2cc(NC(=O)CCC(F)(F)F)ccc2O1	inactive: 1.02
Cc1noc(C)c1S(=O)(=O)N(C)C[C@@H]1OCCCC[C@@H](C)Oc2ccc(NC(=O)Nc3ccc(C(F)(F)F)cc3)cc2C(=O)N([C@H](C)CO)C[C@@H]1C	inactive: 1.01
O=C(C=CC=Cc1ccc2c(c1)OCO2)N1CCCCC1	inactive: 1.02
C[C@@H]1COC(=O)[C@@H](NC(=O)OCC2c3ccccc3-c3ccccc32)CC=CC[C@H](CC(=O)NCCO)C(=O)N1	inactive: 1.02
Cc1ccc(S(=O)(=O)N(C)C[C@H]2OCCCC[C@H](C)Oc3ccc(NC(=O)CCC(F)(F)F)cc3C(=O)N([C@H](C)CO)C[C@H]2C)cc1	inactive: 0.977
CC(=O)N(C)C[C@@H]1Oc2ncc(C#C[C@@H](C)O)cc2C(=O)N([C@@H](C)CO)C[C@@H]1C	inactive: 1
CN(C)CCCNC(=O)[C@H]1[C@H](CO)[C@H]2Cn3c(ccc(-c4ccncc4)c3=O)[C@@H]1N2C(=O)C1CC1	inactive: 0.985
NCc1cc(-c2ccccc2Cl)no1	inactive: 0.976
C[C@H]1CN([C@@H](C)CO)C(=O)Cc2cc(NS(=O)(=O)c3cccs3)ccc2O[C@@H]1CN(C)Cc1ccc(Cl)c(Cl)c1	inactive: 0.987
Cc1ccc(S(=O)(=O)Nc2ccc3c(c2)CC(=O)N([C@@H](C)CO)C[C@H](C)[C@H](CN(C)C(=O)Nc2ccc(C(F)(F)F)cc2)O3)cc1	inactive: 1.01
